The supplement of paper PMC11876631
Residue numbers refer to the chain shown, from its start. Names and notes keep the numbering of the source. ± gives the standard deviation of the averaged measurements. Laboratory Escherichia coli strains with one amino-acid change in an essential protein, pooled on minimal glucose agar with carbenicillin or gentamicin at twice the control MIC (plus kanamycin and chloramphenicol for the plasmids), 48 h. Fold change of barcode share against drug-free plates; higher = less susceptible. Active = above 20 in both replicates (the paper's putatively resistant). '<' = one read or none on drug, '>' = one read or none on a drug-free plate. Shares are relative, so most strains fall below 1 when a few take over. Listed are strains with at least 15 reads on both drug-free plates, and hits; most hits rest on fewer reference reads. Replicate rank correlation about 0.5. Edits are read from barcodes.

Target: Escherichia coli (laboratory strain)
Experiment: barcode share on antibiotic plates over drug-free plates; higher = less susceptible
Experimental: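 A pool of E. coli strains, each edited to carry one amino-acid change in an essential protein, was grown for 48 h on minimal glucose agar with or without antibiotic; strain barcodes were sequenced; mean of two replicates.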

[1] = antibiotic: carbenicillin, 2× MIC (3.1 µg/mL)
[2] = antibiotic: gentamicin, 2× MIC (MIC 0.45 µg/mL)

B1: cdsA I7P (protein)
chain: MLKYRLPSAFVLIPVVIAALFLLPPVGFAIVTLVVCMLAAWEWGQLSGFTTRSQRVWLAVLCGLLLALMLFLLPEYHRNIHQPLVEISLWASLGWWIVALLLVLFYPGSAAIWRNSKTLRLIFGVLTIVPFFWGMLALRAWHYDENHYSGAIWLLYVMILVWGADSGAYMFGKLFGKHKLAPKVSPGKTWQGFIGGLATAAVISWGYGMWANLDVAPVTLLICSIVAALASVLGDLTESMFKREAGIKDSGHLIPGHGGILDRIDSLTAAVPVFACLLLLVFRTL
fold change of barcode share [1]: 0.22 ± 0.045 | fold change of barcode share [2]: 0.18 ± 0.17

B2: cdsA V16A (protein)
chain: B1 chain with P7I, V16A
fold change of barcode share [1]: 0.4 ± 0.019 | fold change of barcode share [2]: 0.0064 ± 0.0028

B3: cdsA V16W (protein)
chain: B1 chain with P7I, V16W
fold change of barcode share [1]: 1.19 ± 1.4 | fold change of barcode share [2]: 0.00704 ± 0.0054

B4: cdsA V16Q (protein)
chain: B1 chain with P7I, V16Q
fold change of barcode share [1]: 0.305 ± 0.069 | fold change of barcode share [2]: 0.0121 ± 0.0084

B5: cdsA V16D (protein)
chain: B1 chain with P7I, V16D
fold change of barcode share [1]: 0.334 ± 0.052 | fold change of barcode share [2]: < 0.00363

B6: cdsA V16P (protein)
chain: B1 chain with P7I, V16P
fold change of barcode share [1]: 0.276 ± 0.0036 | fold change of barcode share [2]: 0.0048 ± 0.0029

B7: cdsA I17A (protein)
chain: B1 chain with P7I, I17A
fold change of barcode share [1]: 0.946 ± 0.98 | fold change of barcode share [2]: 0.00971 ± 0.0089

B8: cdsA I17W (protein)
chain: B1 chain with P7I, I17W
fold change of barcode share [1]: 0.305 ± 0.072 | fold change of barcode share [2]: 0.0104 ± 0.004

B9: cdsA I17Q (protein)
chain: B1 chain with P7I, I17Q
fold change of barcode share [1]: 0.525 ± 0.026 | fold change of barcode share [2]: 0.00515 ± 0.0046

B10: cdsA I17D (protein)
chain: B1 chain with P7I, I17D
fold change of barcode share [1]: 0.232 ± 0.026 | fold change of barcode share [2]: 0.0812 ± 0.11

B11: cdsA I17P (protein)
chain: B1 chain with P7I, I17P
fold change of barcode share [1]: 0.244 ± 0.042 | fold change of barcode share [2]: < 0.00644

B12: cdsA L20A (protein)
chain: B1 chain with P7I, L20A
fold change of barcode share [1]: 0.258 ± 0.091 | fold change of barcode share [2]: 0.00577 ± 0.0055

B13: cdsA L20W (protein)
chain: B1 chain with P7I, L20W
fold change of barcode share [1]: 0.271 ± 0.084 | fold change of barcode share [2]: 0.0125 ± 0.0056

B14: cdsA L20Q (protein)
chain: B1 chain with P7I, L20Q
fold change of barcode share [1]: 0.227 ± 0.077 | fold change of barcode share [2]: 0.00583 ± 0.0054

B15: cdsA L20D (protein)
chain: B1 chain with P7I, L20D
fold change of barcode share [1]: 0.304 ± 0.0099 | fold change of barcode share [2]: 0.0098 ± 0.0084
